The supplement of paper PMC8728848
The other results are listed elsewhere or left out.

Experiments:
Assay in all cases: glycan array binding signal (z-score within array); higher = stronger binding
Details in all cases: glycan notation: IUPAC condensed, linker removed
[1] = target: Gal3S6S(b1-4)GlcNAc
Method in brief: (§1)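 From the Consortium for Functional Glycomics database, 3228 arrays were curated, keeping only those whose protein sequence was available. Binding is given as a within-array Z-score averaged across arrays sharing a protein sequence and across linkers. Negative Z-scores can be read as non-binding.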

[2] = target: Gal3S6S(b1-4)GlcNAc6S
Method in brief: as §1

[3] = target: Gal4S(b1-4)GlcNAc
Method in brief: as §1

[4] = target: Gal4S6S(b1-4)GlcNAc
Method in brief: as §1

[5] = target: Gal6P(b1-4)GlcNAc
Method in brief: as §1

[6] = target: Gal6S(b1-3)GlcNAc
Method in brief: as §1

[7] = target: Gal6S(b1-3)GlcNAc6S
Method in brief: as §1

[8] = target: Gal6S(b1-4)Glc
Method in brief: as §1

[9] = target: Gal6S(b1-4)Glc6S
Method in brief: as §1

[10] = target: Gal6S(b1-4)GlcNAc
Method in brief: as §1

[11] = target: Gal6S(b1-4)GlcNAc6S
Method in brief: as §1

[12] = target: GalNAc(a1-3)Gal
Method in brief: as §1

[13] = target: GalNAc(a1-3)GalNAc
Method in brief: as §1

[14] = target: GalNAc(a1-3)GalNAc(b1-3)Gal(a1-4)Gal(b1-4)Glc
Method in brief: as §1

[15] = target: GalNAc(a1-3)GalNAc(b1-3)Gal(a1-4)Gal(b1-4)GlcNAc
Method in brief: as §1

[16] = target: GalNAc(b1-3)Gal
Method in brief: as §1

[17] = target: GalNAc(b1-3)Gal(a1-4)Gal(b1-4)GlcNAc
Method in brief: as §1

[18] = target: GalNAc(b1-3)Gal(a1-4)Gal(b1-4)GlcNAc(b1-3)Gal(b1-4)Glc
Method in brief: as §1

[19] = target: GalNAc(b1-3)Gal(a1-6)Gal(b1-4)Glc
Method in brief: as §1

[20] = target: GalNAc(b1-3)GalNAc
Method in brief: as §1

[21] = target: GalNAc(b1-3)GlcNAc
Method in brief: as §1

[22] = target: GalNAc(b1-4)Gal(b1-4)Glc
Method in brief: as §1

[23] = target: GalNAc(b1-4)GlcNAc
Method in brief: as §1

B1: Epa10 (protein)
chain: MNEKIFRYLTLLFLFELARSLPVEDKLNIKKVFEKRAVDFTPFAHYPRPEGCSSPPNSVSVGLHMNLYNYPYLYVKPSTKGMFTNDTNSDADGETDGDSAGGIEGRAGQCWNPEYQDPNFPRFGYKQYGEFGASDNVNGDISWDHNEFTEGCKPVLAALPPGYNYPDEITFSNFTMVLSGYFKPKTSGVYKFELKADDFILFNFGAKNAFECCNREESIDNFGPYVAYAMWPNQADQELEVYLFEDSYYPLRLFYNNRDYHSKFKIGFYPPGQTTITFDFDGYLFMLDDTGNECRDSIRYRTVCDDKVVDDTTYSTRYSTSMVPGGGSDVITIYYIRMKCEEEDCLGQWDPINNVCYSPDDCADDGGYWNGQMCDQSCKLEGGIVNPDTGDCDKSCIESGGFLDENGNCDTTCRDDGGMLVEGQCDYQCKEAGGILVGDHCDTTCVDSGGKLNEDGTCDHSCRDQGGQLDENGECDTSCKDSGGMLIEGECDTSCKDEGGQLDDNNECINHCKDQGGIIDENGNCDTSCKDSGGKLDESGACDTSCRDDGGIIDENGNCNTTCRDDGGIIVGDHCDTSCRDAGGILIEDHCDTTCRDSGGKLNEDGTCDHSCRDQGGQLDENGKCDYSCKNGGGKLDEDGNCDMSCKENGGKLDENGDCDLSCKEDGGKLDGNGDCDYSCKEEGGVIDESGNCNTTCKDSGGQIIDGECNYGCIEVGGVVIDGECDTSCIDSGGILDGDGNCDRSCIESGGVLEDGACNTTCRDSGGQLNVDGTCDTSCRDDGGMLVEGQCDYQCKEAGGILEDGECVFPPTSSSTSETSSTTDQSSLQSDDSSMESSSTPMDSSTIESSSSEIITSESESESVPIASSSSEVMTSESESESIPILTSSSEIPIASSSSEIPVASSSSEIIIPESESESVPVASSSSEIPIASSSSEIPVASSSSEIPVASSSSEIIIPESESESIPIESTSSEAVSSRSESDSSYPTPTPTTTTITTWPNPIQPTTSNSSPIVSSSTETPGIAESSSRISDLESSRRTSILGDDRTRTRTTITSTITEDGQIITITTTVTGFVPEPTGETEGNGSDDENPENPIENNTDENEFLDPEFTDDIPDDPAGPEDNGNGPVNPEQGNDNDPVNLEDSGNNGAVNPEQAPVNDEDNGGNDPVNPEQDNNNGPANPGQDSTNGSGNSDQIDNNPPTPEENAGDGNSNGNDPADPSRRTSILGDERTRASPGGTSQPTGANGNVNGNSPGANVNGGGTGNSNNNNNNNNNNNNGNAPNGGDGSNGDANQGPSRRTSLLGDERTRAGQAAPTGGSSPDNGIAGDTSNNGGAIVSQQVDDGGAGSPRRTSILGDVRSRTTLNGEVLNFEGSGVRRAVAGNLALPLMMVGLVFNL
[1]
  glycan array binding signal (z-score): -0.277
[2]
  glycan array binding signal (z-score): -0.239
[3]
  glycan array binding signal (z-score): -0.247
[4]
  glycan array binding signal (z-score): -0.306
[5]
  glycan array binding signal (z-score): -0.183
[6]
  glycan array binding signal (z-score): -0.171
[7]
  glycan array binding signal (z-score): 0.218
[8]
  glycan array binding signal (z-score): -0.365
[9]
  glycan array binding signal (z-score): 0.033
[10]
  glycan array binding signal (z-score): -0.285
[11]
  glycan array binding signal (z-score): -0.119
[12]
  glycan array binding signal (z-score): -0.277
[13]
  glycan array binding signal (z-score): -0.207
[14]
  glycan array binding signal (z-score): -0.278
[15]
  glycan array binding signal (z-score): -0.142
[16]
  glycan array binding signal (z-score): -0.186
[17]
  glycan array binding signal (z-score): -0.153
[18]
  glycan array binding signal (z-score): -0.242
[19]
  glycan array binding signal (z-score): -0.227
[20]
  glycan array binding signal (z-score): -0.232
[21]
  glycan array binding signal (z-score): -0.302
[22]
  glycan array binding signal (z-score): -0.203
[23]
  glycan array binding signal (z-score): -0.254
